The campaign covered roughly 150,000 compounds. About 6,500 (4.3%) were called active. The inconclusive results got no clear call from the source; some entries with a clear call stand among them for comparison. The call rests on the fitted dose curve; in most records, active means well fitted inhibition curve with a large enough effect (not every such curve was filed as active); inconclusive means small, poorly fitted or top-dose-only effect, or another doubt; inactive means no such curve, though single readings can be large or run the other way. Potencies of inconclusive entries are left out as doubtful fits. Where a structure was tested more than once in an assay, its records may differ in their call.
Each compound was assayed against 15-hydroxyprostaglandin dehydrogenase [NAD(+)] (Homo sapiens) (UniProt P15428) (assay: qHTS Assay for Inhibitors of HPGD (15-Hydroxyprostaglandin Dehydrogenase)). Conditions: purified HPGD, NADH fluorescence kinetic, PGE2 substrate; activity change, negative = inhibition: hits give low values.
Sequence of UniProt P15428 (P15428 whole entry, looked up): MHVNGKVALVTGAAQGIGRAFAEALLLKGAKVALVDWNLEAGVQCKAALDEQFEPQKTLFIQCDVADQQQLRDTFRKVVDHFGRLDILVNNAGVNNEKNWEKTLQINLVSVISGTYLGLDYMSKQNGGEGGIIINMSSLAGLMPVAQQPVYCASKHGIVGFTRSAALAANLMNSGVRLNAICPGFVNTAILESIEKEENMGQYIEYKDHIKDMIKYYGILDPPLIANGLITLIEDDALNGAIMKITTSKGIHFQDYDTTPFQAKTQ
Summary of the method: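 NADH formation kinetics: reaction with 30 uM PGE2 and 1 mM NAD+ (final), 20 nM enzyme, Tris-HCl pH 8 with Tween 20, after 15 min compound preincubation at room temperature. Fluorescence change, last versus first of five reads.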
With `CN(Cc1ccccc1)C(=O)c1cccc(N2C(=O)NC3CC2(C)Oc2ccccc23)c1` (stereo not drawn) the Potency was inconclusive [inhibitor, single point]. In the case of `Oc1c(Cl)cc(Cl)cc1Sc1cc(Cl)cc(Cl)c1O`, the Potency is reported as active: 31.6 µM. For `O=S(=O)(Cc1ccccc1Cl)Nc1ccccn1`, the Potency was inconclusive [inhibitor, partial curve]. In the case of `CN=c1scc(-c2cccs2)n1/N=C/c1ccc(O)c(O)c1O`, the Potency is reported as active: 5.01 µM. `CCOC(=O)CSc1nc2cc(OCC)ccc2cc1C#N` was tested, and the Potency was inconclusive [inhibitor, partial curve]. `CCc1ccc(-c2cc(-c3n[nH]c(=S)n3CC)c3ccccc3n2)cc1` was tested, and the Potency was inconclusive [inhibitor, partial curve]. For `CCOc1nc(-c2ccc(C)cc2)ccc1-c1noc(-c2cccnc2)n1`, the Potency was inconclusive [inhibitor, partial curve]. With `COc1ccc(-c2cc(C(=O)OCC(=O)c3ccc(C)c([N+](=O)[O-])c3)c3ccccc3n2)cc1` the Potency was inconclusive [inhibitor, partial curve]. In the case of `Cc1ccc2[nH]c(=O)c(C(c3nnnn3Cc3ccccc3)N3CCc4ccccc43)cc2c1` (stereo not drawn), the Potency is reported as inconclusive [inhibitor, partial curve]. `CSc1c(C#N)c(N)c(C#N)c2c1COC(C)(C)C2` was tested, and the Potency was inconclusive [inhibitor, partial curve]. `Cc1csc(SCC(=O)Nc2cc(S(=O)(=O)N3CCCC3)ccc2Cl)n1` was tested, and the activity change, negative = inhibition was inactive: 0.349%. With `Cc1cccc(NC2=C(NC(=O)c3ccccc3)C(=O)c3ccccc3C2=O)c1` the Potency was inconclusive [inhibitor, single point]. With `CCOC(=O)N1CCC(Nc2ncnc3c2cnn3-c2ccc(Cl)cc2)CC1` the Potency was inconclusive [inhibitor, partial curve]. With `CCC(C)n1cnc2c(c1=O)c1nc3ccccc3nc1n2Cc1ccc2c(c1)OCO2` (stereo not drawn) the Potency was inconclusive [inhibitor, single point]. In the case of `O=C(c1cccc(-n2cnnn2)c1)N1CCOCC1`, the activity change, negative = inhibition is reported as inactive: 0.378%. `COCC(=O)NC1CCN(C(=O)NCc2ccccc2)CC1` was tested, and the activity change, negative = inhibition was inactive: -14.6%. In the case of `O=C(NCc1ccco1)O[C@@H]1C(=O)c2cc(Br)ccc2O[C@H]1c1ccc2c(c1)OCO2`, the activity change, negative = inhibition is reported as inactive: -7.84%. In the case of `CCc1cc2c(NCC3CCCO3)ncnc2s1` (stereo not drawn), the Potency is reported as active: 14.1 µM. `CCN1/C(=C/C(C)=O)Sc2ccc(OC)cc21` was tested, and the Potency was active: 12.6 µM. With `Cc1sc2ncn(CC(=O)OC(C)C)c(=O)c2c1C` the activity change, negative = inhibition was inactive: -2.93%. `COc1ccc(-c2nc3ccccn3c2/N=C/c2ccc(OC)c(OC)c2)cc1O` was tested, and the Potency was inconclusive [inhibitor, single point]. In the case of `COc1cc(NC(=S)NCc2ccco2)cc(OC)c1OC`, the Potency is reported as active: 15.8 µM. With `O=C(O)c1ccccc1C(=O)N1CCN(c2ccccc2)CC1` the activity change, negative = inhibition was inactive: -12.3%. `CCC1(C)Cc2c(sc(NC(=S)NC(=O)c3ccccc3)c2C#N)CO1` (stereo not drawn) was tested, and the Potency was active: 7.94 µM. For `COc1ccc(/C=N/NC(=O)c2ccc(O)cc2O)cc1CSc1ccccn1`, the Potency was inconclusive [inhibitor, partial curve]. In the case of `Nc1cccc(Nc2nc(OC(C(F)(F)F)C(F)(F)F)nc(OC(C(F)(F)F)C(F)(F)F)n2)c1`, the activity change, negative = inhibition is reported as inactive: -26.9%. `O=C(c1ccc(N2CCCC2=O)cc1)N1CCOCC1` was tested, and the Potency was active: 22.4 µM. With `CNC(CC(=O)c1ccc([N+](=O)[O-])cc1)C(Cl)(Cl)Cl` (stereo not drawn) the Potency was active: 10 µM. `CC1CCCCC1NC(=O)CSc1nc2ccccc2c(=O)n1Cc1ccco1` (stereo not drawn) was tested, and the activity change, negative = inhibition was inactive: -3.08%. For `COCCNc1nc(C)nc2c1nc(-c1ccccc1)n2CCN1CCCC1`, the Potency was inconclusive [inhibitor, partial curve]. `COc1ccc(/C=C(/C#N)C(=O)NC2CCCCC2)cc1Br` was tested, and the Potency was inconclusive [inhibitor, partial curve]. `C=CCSc1nc2sc(C)c(C)c2c(=O)[nH]1` was tested, and the Potency was inconclusive [inhibitor, partial curve]. For `COCCn1c(=O)c(-c2cccs2)nc2cnc(Nc3ccccc3)nc21`, the activity change, negative = inhibition was inactive: -2.65%. With `O=C(NCc1ccc(Cl)cc1)c1ccc(Br)o1` the Potency was active: 35.5 µM. In the case of `c1cncc(CSc2ncnc3nc[nH]c23)c1`, the activity change, negative = inhibition is reported as inactive: -2.58%. In the case of `COc1ccc2nc(NC(=O)CSc3nc(C)cc(=O)[nH]3)sc2c1`, the Potency is reported as active: 28.2 µM. With `CC1(C)N=C(c2cccs2)C(C)(C)N1O` the Potency was inconclusive [inhibitor, single point]. For `COc1cccc(C(c2c(C)[nH]n(-c3ccccc3)c2=O)c2c(C)[nH]n(-c3ccccc3)c2=O)c1OC`, the Potency was active: 22.4 µM. For `Cc1ccc(-c2nn(-c3ccccc3)cc2CO)o1`, the Potency was inconclusive [inhibitor, partial curve]. For `COc1ccc2oc(C(=O)OCC(=O)c3ccc4c(c3)OCCO4)c(C)c2c1`, the Potency was inconclusive [inhibitor, partial curve]. In the case of `C=CCn1c(-c2ccc(OC)cc2)nc2ccccc21`, the Potency is reported as inconclusive [inhibitor, partial curve]. With `CC1CCN(C(=O)c2ccc3c(c2)OCCO3)CC1` the Potency was active: 0.398 µM. For `COc1ccccc1C(=O)NC(=S)/C=C1/N(C)c2ccccc2C1(C)C`, the activity change, negative = inhibition was inactive: -29.6%. For `O=C(CCCOc1ccc(Cl)cc1Cl)N1CCCc2ccccc21`, the Potency was inconclusive [inhibitor, single point]. `COc1ccc(-n2nc3cc(C)c(NC(=O)C(C)C)cc3n2)cc1` was tested, and the Potency was inconclusive [inhibitor, partial curve]. For `CCCn1nc2cc(C(=O)NCc3ccc(OC(F)(F)F)cc3)ccc2c1OCC`, the Potency was inconclusive [inhibitor, partial curve]. With `Cc1cccc(Nc2ccccc2C(=O)NCc2ccco2)c1C` the activity change, negative = inhibition was inactive: -6.4%. With `CCOc1ccc2[nH]c(=O)c(CN(CCO)C(=O)c3ccc(F)cc3)cc2c1` the Potency was inconclusive [inhibitor, partial curve]. For `CCOC(=O)N1CCC(NC(=O)c2ccc3c(c2)N(C)CCS3)CC1`, the Potency was inconclusive [inhibitor, partial curve]. With `COc1cccc(OC)c1OCCCOc1ccc(C)cc1Br` the Potency was active: 22.4 µM. `CCC12OC(=N)C(C#N)(C1C)C(C#N)(C#N)C(c1ccccc1)O2` (stereo not drawn) was tested, and the Potency was inconclusive [inhibitor, partial curve]. `O=C(O)c1cccc(-n2nnnc2SCc2ccccn2)c1` was tested, and the Potency was inconclusive [inhibitor, single point]. For `COc1ccc(/C=N/NC(=O)c2cccc(NC(=O)c3ccccc3)c2)c(C(=O)O)c1OC`, the activity change, negative = inhibition was inactive: -10.9%. `Cc1cc(Br)ccc1SCC(=O)OCC(=O)N1CCN(C(=O)c2ccco2)CC1` was tested, and the Potency was inconclusive [inhibitor, partial curve]. With `COc1ccc(CNC(=O)Cn2nc(-c3ccc4c(c3)OCCO4)ccc2=O)cc1` the Potency was inconclusive [inhibitor, single point]. `Cc1ccccc1NC(=O)c1c(C)nn(-c2ccccc2)c1Cl` was tested, and the Potency was active: 28.2 µM. In the case of `Cc1ccc(OCCn2cnc3ccccc3c2=O)c([N+](=O)[O-])c1`, the activity change, negative = inhibition is reported as inactive: -5.83%. For `O=C(COC(=O)CNS(=O)(=O)c1ccc(F)c(F)c1F)Nc1ccc(OC(F)F)cc1`, the activity change, negative = inhibition was inactive: -0.681%. In the case of `COc1cccc(-n2nnc3c(=O)n(Cc4cccc(F)c4)cnc32)c1`, the Potency is reported as active: 14.1 µM. For `CN1CCN(C(=O)c2cnn3c(C(F)(F)F)cc(-c4ccc5c(c4)OCO5)nc23)CC1`, the Potency was active: 25.1 µM. For `COc1ccc(OC)c(C2=NOC(C(=O)NCCN3CCOCC3)C2)c1` (stereo not drawn), the Potency was inconclusive [inhibitor, partial curve]. For `CC(C)CN(C(=O)CSc1nn(-c2ccc(Cl)cc2)c(=S)s1)C1CCS(=O)(=O)C1` (stereo not drawn), the activity change, negative = inhibition was inactive: -13.7%. With `CCCc1cc(=O)oc2cc(OCC(=O)N(C)C)c(Cl)cc12` the Potency was inconclusive [inhibitor, partial curve]. In the case of `CCCS(=O)(=O)c1c(S(=O)(=O)CCC)c2ccccn2c1C(=O)OC`, the Potency is reported as inconclusive [inhibitor, single point]. In the case of `CCC1(C)Cc2c(sc3nc(NN)n(C)c(=O)c23)CO1` (stereo not drawn), the Potency is reported as inconclusive [inhibitor, partial curve, poor fit]. `O=c1[nH]c2c(s1)C(c1ccc(O)cc1)C1C3CCC(C3)C1S2` (stereo not drawn) was tested, and the Potency was inconclusive [inhibitor, single point]. In the case of `O=C(c1cc2nc(-c3ccccc3)cc(C(F)(F)F)n2n1)N1CCOCC1`, the Potency is reported as inconclusive [inhibitor, partial curve]. In the case of `Cc1ccc(C)c(O)c1`, the activity change, negative = inhibition is reported as inactive: -2.59%. In the case of `CCCC/C=C/C(NC(=O)OCc1ccccc1Cl)c1ccccc1` (stereo not drawn), the Potency is reported as inconclusive [inhibitor, single point]. For `CCC(=O)c1cc(F)c(N2CCN(S(=O)(=O)c3ccc(C)cc3)CC2)cc1C`, the activity change, negative = inhibition was inactive: -19.2%. `O=c1nc2n(c3c1oc1ccccc13)Cc1ccccc1-2` was tested, and the Potency was inconclusive [inhibitor, partial curve]. With `COc1ccc(-c2nn(C)c(=O)c3ccccc23)cc1CNC(=O)c1ccco1` the Potency was inconclusive [inhibitor, partial curve]. `CCOc1cc(/C=C2/C(=N)N3C=CSC3=NC2=O)ccc1OCCCOc1ccccc1C` was tested, and the Potency was inconclusive [inhibitor, partial curve, poor fit].

— PubChem BioAssay AID894 (National Center for Advancing Translational Sciences (NCATS), 2007)
On the % scale 0 is the no-effect control and ±100 the full control effect; potency means the concentration at half of the fitted maximal effect; tags describe the fitted curve by direction and shape.
